Reference: PubChem BioAssay AID493208 (National Center for Advancing Translational Sciences (NCATS), 2011)
About 340 (0.77%) of roughly 44,000 compounds were called active. About 5% were inconclusive and are not listed. The call rests on the fitted dose curve; in most records, active means well fitted inhibition curve with a large enough effect; inconclusive means small, poorly fitted or top-dose-only effect; inactive means flat fitted curve, though single readings scatter. The list shows a part of the results.

Experiment: Acumen qHTS Assay for Inhibitors of the mTORC1 Signaling Pathway in MEF (Tsc2-/-, p53-/-) Cells: Sytravon;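 further: plate controls were DMSO for no effect and rapamycin for full effect; nearly all actives have a fitted effect of over 50% in size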
Conditions: phospho-rpS6 immunofluorescence/PI, 24 h; series mostly up to 38.3 µM; activity change, negative = inhibition: at the top concentration
Summary of the method: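 Plate MEFs (Tsc2-/-, p53-/-, empty vector) in DMEM/10% FBS; after 24 h add compound, incubate 24 h at 37 degree Celsius; fix in PFA/TX-100, block, stain phospho-rpS6 and 10 uM PI; scan at 488 nm; report % positive cells.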

Activity change, negative = inhibition, inactive:
COc1cccc(-c2nnc3n(Cc4ccccc4Cl)c(=O)c4ccccc4n23)c1O -2.32%
O=C(NCc1ccc2c(c1)CCN2C(=O)c1ccncc1)c1ccc(Cl)cc1 2.27%
CC(C)Oc1ccc(CNC(=O)CCCn2c(=O)c3cccn3c3cccnc32)cc1 -23.4%
Cc1ccc2c(=O)c(C(=O)c3ccccc3)cn(CC(=O)Nc3ccccc3)c2n1 -0.462%
COCCN(CCOC)C(=O)c1cc2c(=O)n3ccccc3nc2n1C -4.71%
Cc1c(Cl)cccc1NC(=O)CN1C(=O)CCn2nc(-c3cccn3C)cc21 0.44%
CCn1c(NCc2cccc(Cl)c2)nc2ccccc21 -0.729%
COc1cccc(C(=O)NC2=NC(c3ccc(N(C)C)cc3)CC(=O)N2)c1 (configuration not stated) 0.508%
O=C(CSc1nc(-c2ccccc2)cn1-c1ccccc1)Nc1ccccc1 -2.57%
COc1cc(-c2nc3ccc(C)cn3c2Nc2ccc(Cl)cc2)ccc1O 1.71%
O=C(NCCCN1CCCCC1)c1cc(Sc2ccc(Cl)cc2)nc2ccccc12 -0.329%
Cc1cc(C)c(C(=O)Nc2ccccc2)c(SCC(=O)Nc2ccc(Br)cc2C)n1 -0.618%
Cc1ccc(Cn2c(C(=O)O)c(CNCCc3ccco3)c3ccc(C)cc32)cc1 -1.22%
O=S(=O)(c1ccc(Br)cc1)c1nnn2c1nc(NCc1cccs1)c1sccc12 -1.54%
CC(=O)c1ccc(N2CCN(C3C(=O)c4ccccc4N3C(C)=O)CC2)cc1 (configuration not stated) 5.96%
COc1ccc(-c2cc(C(=O)NCCc3ccccc3)c3cc(C(C)C)ccc3n2)cc1 12%
COc1ccc(Cl)cc1NC(=O)c1nn(C)c2c1CS(=O)(=O)c1ccccc1-2 6.98%
COc1ccccc1NC(=O)CCn1c(=O)oc2cc(Cl)ccc21 1.06%
COCCCNC(=O)C1CCN(c2cc(C)nc3c(-c4ccc(OC)c(OC)c4)c(C)nn23)CC1 -0.342%
CCOc1cc(-c2nc(-c3ccc(-c4ccc(OC)cc4)nc3OC)no2)cc(OCC)c1OCC -0.0268%
COc1ccc(-n2cc(C(=O)NCc3cccc(OC)c3)c3ccccc3c2=O)cc1 -15.3%
CC1=C(C(=O)Nc2ccccc2C)C(c2ccccn2)n2nc(SCc3ccccc3F)nc2N1 (configuration not stated) -7.28%
O=C(CSc1nc(=O)n(Cc2ccco2)c2c1CCC2)NCc1ccc(F)cc1 0.477%
COc1ccc2nc(NC(=O)c3ccc(S(=O)(=O)N4CCCC(C)C4)cc3)sc2c1 (configuration not stated) 2.24%
Cc1nc2nc(NC(=O)c3ccc(Cl)cc3)[nH]n2c(=O)c1Cc1ccccc1 -3.81%
CCc1ccc(NC(=O)CSc2nc(=O)n(Cc3ccco3)c3c2CCC3)cc1 -4.51%
Cc1ccc(S(=O)(=O)c2nnn3c2nc(N2CCN(c4ccccc4F)CC2)c2ccccc23)cc1C 0.56%
CC(NC(=O)Cn1c(-c2cccs2)cc2cc(F)ccc21)c1ccccc1 (configuration not stated) -15.6%
O=C(NC1CC(=O)N(c2ccc(Cl)cc2)C1)c1cccs1 (configuration not stated) 0.132%
COc1ccc(-c2cc(C(=O)Oc3ccc(C)c(C)c3)c3ccccc3n2)cc1 13.8%
CCC(C)NC(=O)c1c(-c2ccccc2)c(-c2ccccc2)nn(C)c1=O (configuration not stated) -13.9%
Cc1ccc(C(=O)NC2(C(F)(F)F)C(=O)Nc3c2c(=O)[nH]c(=O)n3CCc2ccccc2)cc1 (configuration not stated) -2.21%
CCOC(=O)c1cc(-c2ccccc2)n(CCCC(=O)Nc2ccc(C)cc2C)c1C -10.9%
Cc1cccc(-n2c3nc(=O)n(C)c(=O)c-3cc3ccc(Cl)cc32)c1C -0.651%
Cc1noc2ncnc(NCc3cccc(Cl)c3)c12 4.64%
Cc1c(C(=O)N2CCC(C(=O)Nc3ccc(F)cc3)CC2)sc2nc[nH]c(=O)c12 -2.44%
Oc1cccc(Nc2ncnc3sc4c(c23)CCCC4)c1 7.97%
CS(=O)(=O)N1CCc2cc(C(=O)NCc3ccccc3)ccc21 2.58%
CC(C)(C)C(=O)N1CCN(c2nc3c(F)cccc3s2)CC1 -0.965%
CCOc1ccc(-n2c(SCC(=O)N3CCCCC3)nc3c([nH]c4ccccc43)c2=O)cc1 -0.326%
COc1cc(C(=O)Nc2ccc3nc(SCc4ccc(C)cc4)sc3c2)cc(OC)c1OC -3.27%
CC(=O)c1ccc(S(=O)(=O)Nc2cccc(-c3ccc(N4CCCCCC4)nn3)c2)cc1 -7.65%
CCCC(=O)N1CCN(c2nc3c(OC)ccc(C)c3s2)CC1 -3.09%
CC(C)(C)OC(=O)N1CCC(c2c(C(=O)N3CCN(C(=O)c4ccco4)CC3)cnn2-c2cccc(F)c2)CC1 0%
CCOc1ccc(-n2c(SCC(=O)N3CCOCC3)nc3c([nH]c4ccccc43)c2=O)cc1 4.36%
Cc1ccc(C)c(Nc2nnc(-n3nc(C)cc3C)c3ccccc23)c1 -9.92%
O=C(Nc1cccc(F)c1)c1ccc2snnc2c1 -5.12%
